By IC50 is meant the dose at which the fit gives 50% viability; a limit (>, <) means that the fit lies beyond the doses tested. AUC sums up the same curve from the lowest dose to the 256-fold higher top dose; the more sensitive the line, the further below 1. For part of these data: Any top dose called inferred comes from the curve model; the source does not state it. For part of these data: Drugs with an entry number were screened twice under separate entries, and the two screens often disagree.
Columns and labels:
Test in all cases: Viability of human cancer cell lines after 72 h of drug (GDSC screen)
Parthenolide = compound: C=C1C(=O)O[C@H]2[C@H]1CC/C(C)=C/CC[C@@]1(C)O[C@@H]21 [Parthenolide]; conditions: top dose 5 µM
Method: (§1)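 Human cancer cell lines in 384-well plates, medium with 10% serum, drug for 72 h over a 256-fold dose range (nine 2-fold or five 4-fold steps up to the top dose). Adherent lines were fixed and stained with the nucleic acid dye Syto60, suspension lines read with resazurin; signal relative to control wells, capped at 0 and 100%. One two-parameter sigmoid per drug and line, fitted in a mixed model over all curves with the slope shared within a line.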

BMS-708163 = compound: NC(=O)[C@@H](CCC(F)(F)F)N(Cc1ccc(-c2ncon2)cc1F)S(=O)(=O)c1ccc(Cl)cc1 [BMS-708163]; conditions: top dose 5 µM; screen: GDSC drug entry 1072; top dose inferred
Method: as §1

PAC-1 = compound: C=CCc1cccc(/C=N/NC(=O)CN2CCN(Cc3ccccc3)CC2)c1O [PAC-1]; conditions: top dose 2.56 µM
Method: as §1

KIN001-135 = compound: COc1cc2ncn(-c3cc(OCc4ccccc4S(C)(=O)=O)c(C#N)s3)c2cc1OC [KIN001-135]; conditions: top dose 5 µM; top dose inferred
Method: as §1

Row | Cell Line | AUC (Parthenolide) | IC50 (Parthenolide) | AUC (BMS-708163) | IC50 (BMS-708163) | AUC (PAC-1) | IC50 (PAC-1) | AUC (KIN001-135) | IC50 (KIN001-135)
1 | SUP-T1 (T-cell lymphoblastic leukaemia, suspension) | 0.987 | > 5 µM | 0.984 | > 5 µM | 0.795 | 1.06 µM | 0.977 | > 5 µM
2 | SW684 (fibrosarcoma, adherent) | 0.975 | > 5 µM | 0.878 | > 5 µM | 0.947 | > 2.56 µM | 0.975 | > 5 µM
3 | SW872 (soft tissue, adherent) | 0.956 | > 5 µM | 0.989 | > 5 µM | 0.968 | > 2.56 µM | 0.988 | > 5 µM
4 | SW954 (urogenital system, adherent) | 0.958 | > 5 µM | 0.897 | > 5 µM | 0.974 | > 2.56 µM | 0.982 | > 5 µM
5 | SW962 (urogenital system, adherent) | 0.917 | > 5 µM | 0.946 | > 5 µM | 0.962 | > 2.56 µM | 0.969 | > 5 µM
6 | TC-71 (Ewing sarcoma, adherent) | 0.988 | > 5 µM | 0.992 | > 5 µM | 0.992 | > 2.56 µM | 0.989 | > 5 µM
7 | TE-1 (oesophagus, adherent) | 0.902 | > 5 µM | 0.915 | > 5 µM | 0.982 | > 2.56 µM | 0.937 | > 5 µM
8 | TE-5 (oesophagus, adherent) | 0.878 | > 5 µM | 0.982 | > 5 µM | 0.982 | > 2.56 µM | 0.983 | > 5 µM
9 | TE-6 (oesophagus, adherent) | 0.986 | > 5 µM | 0.839 | 4.3 µM | 0.976 | > 2.56 µM | 0.979 | > 5 µM
10 | TE-8 (oesophagus, adherent) | 0.985 | > 5 µM | 0.914 | > 5 µM | 0.969 | > 2.56 µM | 0.985 | > 5 µM
11 | TE-9 (oesophagus, adherent) | 0.906 | > 5 µM | 0.986 | > 5 µM | 0.981 | > 2.56 µM | 0.986 | > 5 µM
12 | TE-10 (oesophagus, adherent) | 0.968 | > 5 µM | 0.988 | > 5 µM | 0.98 | > 2.56 µM | 0.986 | > 5 µM
13 | TE-12 (oesophagus, suspension) | 0.933 | > 5 µM | 0.966 | > 5 µM | 0.982 | > 2.56 µM | 0.965 | > 5 µM
14 | TE-15 (oesophagus, suspension) | 0.984 | > 5 µM | 0.946 | > 5 µM | 0.915 | > 2.56 µM | 0.983 | > 5 µM
15 | TGBC1TKB (biliary tract, adherent) | 0.989 | > 5 µM | 0.989 | > 5 µM | 0.96 | > 2.56 µM | 0.989 | > 5 µM
16 | TGW (neuroblastoma, adherent) | 0.987 | > 5 µM | 0.991 | > 5 µM | 0.976 | > 2.56 µM | 0.992 | > 5 µM
17 | TK10 (kidney, adherent) | 0.876 | > 5 µM | 0.959 | > 5 µM | 0.901 | > 2.56 µM | 0.975 | > 5 µM
18 | TK (B-cell lymphoma, suspension) | 0.952 | > 5 µM | 0.985 | > 5 µM | 0.815 | 1.25 µM | 0.981 | > 5 µM
19 | TUR (B-cell lymphoma, suspension) | 0.986 | > 5 µM | 0.989 | > 5 µM | 0.917 | > 2.56 µM | 0.978 | > 5 µM
20 | U-87-MG (glioma, adherent) | 0.87 | > 5 µM | 0.94 | > 5 µM | 0.984 | > 2.56 µM | 0.945 | > 5 µM
21 | U-698-M (B-cell leukaemia, suspension) | 0.96 | > 5 µM | 0.985 | > 5 µM | 0.899 | > 2.56 µM | 0.987 | > 5 µM
22 | UACC-257 (melanoma, adherent) | 0.846 | > 5 µM | 0.843 | 4.89 µM | 0.979 | > 2.56 µM | 0.976 | > 5 µM
23 | VAL (B-cell lymphoma, suspension) | 0.776 | 2.01 µM | 0.981 | > 5 µM | 0.889 | > 2.56 µM | 0.975 | > 5 µM
24 | VCaP (prostate, adherent) | 0.878 | > 5 µM | 0.987 | > 5 µM | 0.887 | > 2.56 µM | 0.987 | > 5 µM
25 | WIL2-NS (lymphoid neoplasm, suspension) | 0.827 | 2.33 µM | 0.992 | > 5 µM | 0.805 | 1.01 µM | 0.986 | > 5 µM
26 | WSU-DLCL2 (B-cell lymphoma, suspension) | 0.993 | > 5 µM | 0.989 | > 5 µM | 0.992 | > 2.56 µM | 0.991 | > 5 µM
27 | WSU-NHL (lymphoid neoplasm, suspension) | 0.95 | > 5 µM | 0.954 | > 5 µM | 0.859 | 1.72 µM | 0.972 | > 5 µM
28 | YT (lymphoid neoplasm, suspension) | 0.991 | > 5 µM | 0.94 | > 5 µM | 0.89 | 2.17 µM | 0.992 | > 5 µM
29 | no-10 (glioma, adherent) | 0.711 | 1.42 µM | 0.959 | > 5 µM | 0.967 | > 2.56 µM | 0.881 | > 5 µM
30 | no-11 (glioma, adherent) | 0.917 | > 5 µM | 0.93 | > 5 µM | 0.98 | > 2.56 µM | 0.939 | > 5 µM

Reference: the supplement of paper PMC4967469
